SMILES strings stand for the structures. The whole screen tested about 7,900 compounds, of which about 400 (5.1%) showed an effect of 50% or more. This is one part of the list.

The target of the experiment is Parkinson's disease protein 7 (PARK7/DJ1) (human, UniProt Q99497). Briefly: primary screen, percent inhibition; read as competition with a fluorescent probe by fluorescence polarization; higher = more effect of the substance. To be noted: 100 µM. In a few lines: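 Fluorescence-polarization probe displacement (JYQ-107, 20 nM final, 2 h) after 2 h preincubation of PARK7 (0.2 μM final) with each fragment at 100 μM final. Read-out ex/em 480/520 nm; remaining activity derived from FP signal loss relative to reference controls.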
Parkinson's disease protein 7 (PARK7/DJ1), sequence (Q99497 whole entry, looked up, the tested form may be a part): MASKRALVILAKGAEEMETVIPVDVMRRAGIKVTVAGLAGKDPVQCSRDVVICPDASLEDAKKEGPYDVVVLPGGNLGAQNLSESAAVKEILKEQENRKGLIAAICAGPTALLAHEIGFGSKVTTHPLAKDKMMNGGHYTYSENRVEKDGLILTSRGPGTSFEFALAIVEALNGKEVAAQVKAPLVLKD
Consider `O=C(CCCl)Nc1ccc2c(c1)OCCO2`, for which the Inhibition % turned out to be 7.65%.

Take `Cc1ccc(F)c(N(C#N)CCN2C(=O)CCC2=O)c1`: the Inhibition % is listed as 7.05%.

In the case of `C=CS(=O)(=O)N1CCN(C(=O)OCc2ccccc2)CC1`, the Inhibition % worked out at 3.15%.

As to `Cc1cn2c(C=C(C#N)c3ccccn3)c(C)nc2s1`, the Inhibition % worked out at 13.6%.

As to `C=CC(=O)Nc1nc(COC)cs1`, the Inhibition % worked out at 8.35%.

On to `Cc1cc(NC(=O)CCl)n(C)n1`, for which the Inhibition % is reported as 24.5%.

`C=CC(=O)NC1COc2cc(F)ccc2C1` (stereo not shown): the Inhibition % is given as 10.8%.

`CCOc1ccc(C)cc1S(=O)(=O)n1ccnc1CC`: the Inhibition % is reported as 0.782%.

On to `CC1CCCC(C)N1C(=O)CCl` (stereo not shown), for which the Inhibition % came out at 9.33%.

As to `CC(=O)NCc1ccc(C(=O)CCl)o1`, the Inhibition % is 92.2%.

Regarding `CCOc1ccc(C=C(C#N)C(=O)O)cc1`, the Inhibition % was found to be 0.974%.

On to `COc1cc(C)c(C(C)C)cc1S(=O)(=O)n1cccn1`, for which the Inhibition % worked out at 4.05%.

With `Cl.NCCCC1CCOC1=O` (stereo not shown), the Inhibition % came out at 6.3%.

As to `CNS(=O)(=O)Nc1ccc(B2OC(C)(C)C(C)(C)O2)cc1`, the Inhibition % is listed as 32.7%.

On to `Cc1ccc(B2OC(C)(C)C(C)(C)O2)cc1Cl`, for which the Inhibition % turned out to be 0.734%.

`CC1(C)OB(c2ccc(C3CC3)c(C#N)c2)OC1(C)C`: the Inhibition % is listed as 7.98%.

As for `C=CC(=O)NCc1c(C)c2ccccc2n1C`, the Inhibition % is given as -1.86%.

As for `C=CC(=O)N(C)Cc1c(C)nn(C)c1C`, the Inhibition % worked out at 9.29%.

Regarding `CC(=CB1OC(C)(C)C(C)(C)O1)c1ccnn1C`, the Inhibition % is on record as 2.29%.

For `CC(C)c1nc(C(C)Nc2ccc(C#N)nc2)cs1` (stereo not shown), the Inhibition % is 3.63%.

Turning to `N#CC(=Cc1ccccc1)c1nnc2n1CCCCC2`, the Inhibition % was 4.87%.

For the compound `O=C1N(c2ccccc2)C(c2ccco2)C1(F)F` (stereo not shown), the Inhibition % was 3.32%.

As for `Nc1nc(CCCl)cs1`, the Inhibition % came to 1.64%.

With `N#Cc1cccc(N2C[C@@H](F)C[C@H]2CO)n1`, the Inhibition % stood at 4.99%.

Take `Cc1ccccc1CCNC(=O)CCl`: the Inhibition % was 8.29%.

Regarding `C=CC(=O)N1CCCC(Cc2ccccc2)C1` (stereo not shown), the Inhibition % was 7.52%.

Regarding `O=C(CCl)NCCc1cccs1`, the Inhibition % was 31.1%.

As to `C=CC(=O)N1CCC(C2C(=O)Nc3ccccc32)CC1` (stereo not shown), the Inhibition % amounted to 8.17%.

Consider `O=C(CCl)Nc1cc(-n2cnnn2)ccc1F`, for which the Inhibition % is reported as 1%.

Consider `N#Cc1nc(N2CCC(CCO)C2)ccc1Cl` (stereo not shown), for which the Inhibition % stood at 6.75%.

On to `N#Cc1ncn(CCS(=O)c2cc(Cl)ccc2Cl)n1` (stereo not shown), for which the Inhibition % worked out at 4.81%.

For `COC(=O)c1cccc(NC(=O)CCl)n1`, the Inhibition % amounted to 4.72%.

Regarding `O=C(c1cccs1)N1CCOC(CS(=O)(=O)F)C1` (stereo not shown), the Inhibition % is listed as 14.7%.

As to `CC1CC(Sc2ncn(-c3ccccc3)n2)C(=O)O1` (stereo not shown), the Inhibition % is given as 2.64%.

Consider `C=CC(=O)N1CCC(c2ccncn2)CC1`, for which the Inhibition % came out at 18.2%.

Turning to `COc1ccc(-c2nc(C#N)c(NC(C)C)o2)cc1`, the Inhibition % is listed as 4.9%.

As for `CC1(C)C(=O)Nc2ccc(C(=O)CCl)cc21`, the Inhibition % is reported as 32.9%.

As to `CC(=O)NCCCN(C)c1nc2ccccn2c1C#N`, the Inhibition % is on record as 15.4%.

`C=CC(=O)NC1CN(C2CC2)CC1C` (stereo not shown): the Inhibition % was 11.3%.

`COC(OC)c1ccnc(C)n1`: the Inhibition % is listed as 6.21%.

For `CC1(C)OB(c2ccc(S(F)(F)(F)(F)F)cc2)OC1(C)C`, the Inhibition % is 9.09%.

As for `O=C(CCl)Nc1cccc(S(=O)(=O)N=C2CCCN2)c1`, the Inhibition % is 18.3%.

`C=CC(=O)NCC1(c2ccc(F)cc2)CC1`: the Inhibition % stood at 9.53%.

On to `CC1(C)OB(c2ccc(C3CC(F)(F)C3(F)F)cc2)OC1(C)C` (stereo not shown), for which the Inhibition % came to 2.09%.

As to `CN(c1ccc(C(=O)CCl)cc1)S(C)(=O)=O`, the Inhibition % was 94.3%.

As for `CC1CC1C(=O)N1CCCCC1CCS(=O)(=O)F` (stereo not shown), the Inhibition % came out at 57.7%.

Turning to `C=CC(=O)NCC1CCCc2ccccc21` (stereo not shown), the Inhibition % amounted to 4.88%.

As for `Cc1cnccc1B1OC(C)(C)C(C)(C)O1`, the Inhibition % is 2.89%.

Consider `C=CC(=O)Nc1cccc(N2CCCNC2=O)c1`, for which the Inhibition % was determined as 2.97%.

For `N#Cc1ccnc(C(F)(F)F)c1`, the Inhibition % came to 14.9%.

`C=CC(=O)N1CCN(C(C)c2ccccc2Cl)CC1` (stereo not shown): the Inhibition % was 7.63%.

For the compound `C=CC(=O)NCC1(N2CCSCC2)CCCC1`, the Inhibition % was 9.29%.

As for `C#CC(=O)NCc1ccccc1`, the Inhibition % is given as -1.57%.

With `Cc1csc2ccc(B(O)O)cc12`, the Inhibition % turned out to be 5.69%.

Turning to `C=CC(=O)N1CCOc2cc(C)ccc21`, the Inhibition % was determined as 11.4%.

For `CS(=O)(=O)N1CCC(CCl)C1` (stereo not shown), the Inhibition % was -0.704%.

Turning to `C=CC(=O)N1CCC(c2ccccn2)CC1`, the Inhibition % came to 5.49%.

On to `C=CC(=O)NCC1(COC)OCCc2ccccc21` (stereo not shown), for which the Inhibition % is 6.32%.

For the compound `O=C(Nc1ccccc1Cl)N1CCC(C2OCCO2)CC1`, the Inhibition % was found to be 12.8%.

On to `C=CC(=O)N(C1CC1)C1CCS(=O)(=O)C1` (stereo not shown), for which the Inhibition % worked out at 10.3%.

On to `CCc1ccc(S(=O)(=O)n2cccn2)cc1`, for which the Inhibition % turned out to be 14.7%.

On to `N#Cc1nccnc1Oc1ccc(Cl)cc1`, for which the Inhibition % is listed as -0.867%.

As for `O=C1c2ccccc2C(=O)N1CCS(=O)(=O)F`, the Inhibition % was found to be 22.5%.

As for `CN(C)S(=O)(=O)c1ccccc1CNC(=O)CCl`, the Inhibition % is listed as 4.96%.

As for `C=CC(=O)NC(C)c1cccc(N2CCCC2)c1` (stereo not shown), the Inhibition % is 24%.

As to `CCOc1ccc(S(=O)(=O)n2ccnc2)cc1C(C)(C)C`, the Inhibition % is 3.5%.

For the compound `COCC(C)NC(=O)C(C#N)=Cc1occc1C` (stereo not shown), the Inhibition % is given as 5.2%.

Turning to `C=CC(=O)N1CCC[C@H]1C(=O)N(C)C`, the Inhibition % came to 18.6%.

Turning to `Cc1nccn1CCCl.Cl`, the Inhibition % stood at 2.86%.

As to `Cc1cc(C=C(C#N)C(N)=O)c(C)n1Cc1ccco1`, the Inhibition % amounted to 7.44%.

`CS(=O)(=O)C(C#N)=Cc1cnn(-c2ccccc2)c1`: the Inhibition % was determined as 10.2%.

As to `C=CC(=O)N1CCN(C)CC1`, the Inhibition % was 0.116%.

As to `CC1(C)OB(c2c(F)cc(F)cc2F)OC1(C)C`, the Inhibition % turned out to be 2.48%.

Take `CCN(C#N)CCN1CC2CCCN2CC1C` (stereo not shown): the Inhibition % came to 17.2%.

On to `O=C(CCl)NCc1ccc(N2CCOCC2)c(F)c1`, for which the Inhibition % worked out at 10.8%.

For `Cc1ccc(NC(=O)NC(=O)CCl)cc1C`, the Inhibition % was determined as 3.45%.

Consider `Cl.Cn1nccc1C=CC(=O)N1CCCC(N)C1` (stereo not shown), for which the Inhibition % turned out to be 15.1%.

As to `Cc1ccc(C=CC(=O)N2CCCn3ncnc32)o1`, the Inhibition % was found to be 4.42%.

As for `C=CC(=O)NCC1CCC(F)(F)CC1`, the Inhibition % is reported as 5.38%.
